“And” between values parts separate entries of the source, which are not always exact repeats. Identical values can stand only once. Inconclusive means that the source gave no clear call. Such entries were picked first, then a sample of the others. For some assays here: A potency beside an inconclusive call is a rough fit, not a confirmed value. The source holds several records for some structures; these can differ, active in one and inactive in another. The source made the active and inactive calls. Unless noted, calls come from the whole dose curve; as a rule, active = well fitted curve in the direction sought with a large enough effect in the repeat runs; inconclusive = weak or mixed curves; inactive = no such curve, though single readings can be large; an effect the other way counts as inactive or inconclusive.
What was measured:
[1] = molecular target: Peroxisome proliferator-activated receptor delta (Homo sapiens) (UniProt Q03181); experiment: qHTS assay to identify small molecule agonists of the peroxisome proliferator-activated receptor delta (PPARd) signaling pathway (AID 743212; calls by dose curve); details: HEK293H PPARd-UAS-bla, beta-lactamase FRET ratio, 17 h; activation: at 62.6 µM (top of the series) unless noted
Chain of UniProt Q03181 (Q03181 whole entry, looked up): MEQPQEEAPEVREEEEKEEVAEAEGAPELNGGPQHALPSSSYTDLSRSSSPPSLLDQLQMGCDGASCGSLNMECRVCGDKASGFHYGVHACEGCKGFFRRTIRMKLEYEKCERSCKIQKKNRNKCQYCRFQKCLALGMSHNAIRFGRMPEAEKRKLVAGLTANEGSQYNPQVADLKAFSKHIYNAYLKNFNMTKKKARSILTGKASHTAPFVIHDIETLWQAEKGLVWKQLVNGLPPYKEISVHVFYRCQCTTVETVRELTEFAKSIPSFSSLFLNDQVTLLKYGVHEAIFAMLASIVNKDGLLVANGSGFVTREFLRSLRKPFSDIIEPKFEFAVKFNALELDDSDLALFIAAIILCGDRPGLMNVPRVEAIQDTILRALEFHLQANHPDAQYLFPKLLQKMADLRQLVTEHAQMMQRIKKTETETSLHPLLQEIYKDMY
In short: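 Tox21 library screened in GeneBLAzer PPARd UAS-bla HEK293H cells. After compound treatment at 37 C, a FRET-based beta-lactamase substrate was applied for 2 h and fluorescence recorded.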

[2] = qHTS assay to identify small molecule antagonists of the peroxisome proliferator-activated receptor delta (PPARd) signaling pathway - cell viability counter screen (AID 743213); details: PPARd-bla HEK293H viability, CellTiter-Glo luminescence, 17 h; viability change, negative = cytotoxic: at 62 µM (top of the series) unless noted; note: nearly all actives have a fitted effect of over 50% in size; for viability change, negative = cytotoxic: % is set by controls: 0 for no effect and ±100 for the full control effect
In short: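 PPARd-bla HEK293H cells (3000/well) got compound plus 300 nM L165041 agonist for 17 h at 37 C. Viability in the same wells came from CellTiter-Glo luminescence after 30 min at room temperature.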

[3] = molecular target: Peroxisome proliferator-activated receptor delta (Homo sapiens) (UniProt Q03181); experiment: qHTS assay to identify small molecule antagonists of the peroxisome proliferator-activated receptor delta (PPARd) signaling pathway (AID 743215; active = well fitted inhibition curve with a large enough effect in the signal ratio in the repeat runs, not every such curve was filed as active; inconclusive = weak or mixed curves, or effect the other way; inactive = no such curve, though single readings can be large or run the other way; the % refers to the signal ratio;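 note: cells stimulated with agonist L165041 at 300 nM final during compound exposure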); details: HEK293H PPARd-UAS-bla, beta-lactamase FRET ratio, antagonist, 17 h; ratio activity, negative = inhibition: at 62 µM (top of the series) unless noted
In short: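 Here, a reporter line (HEK293H, beta-lactamase under a UAS) measures PPARd signaling. Compounds are tested against agonist L165041 at 300 nM final concentration over 17 h at 37 C, with fluorescence read after substrate.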

[4] = qHTS assay to identify small molecule agonists of the farnesoid-X-receptor (FXR) signaling pathway - cell viability counter screen (AID 743218); details: FXR-bla HEK293T viability, CellTiter-Glo luminescence, 16 h; viability change, negative = cytotoxic: at 62.6 µM (top of the series) unless noted; note: nearly all actives have a fitted effect of over 45% in size
In short: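 Quantitative HTS counter screen measuring ATP-based viability via CellTiter-Glo luminescence in HEK 293T cells carrying a UAS-driven beta-lactamase reporter, after 16 h compound exposure at 37 C.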

[5] = qHTS assay to identify small molecule antagonists of the farnesoid-X-receptor (FXR) signaling pathway - cell viability counter screen (AID 743221; active = well fitted cell-killing curve with a large enough effect in the repeat runs, not every such curve was filed as active; inconclusive = weak or mixed curves, or effect the other way; inactive = no such curve, though single readings can be large or run the other way; note: nearly all actives have a fitted effect of over 50% in size); details: FXR-bla HEK293T viability, CellTiter-Glo luminescence, 16 h; activity change, negative = cytotoxicity: at 62.6 µM (top of the series)
In short: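 Cytotoxicity counter screen run in the FXR-bla reporter wells: HEK 293T cells exposed to compound with 50 uM (final) chenodeoxycholic acid for 16 h, 37 C, then viability measured by CellTiter-Glo luminescence after 30 min, room temperature.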

[6] = qHTS assay to identify small molecule antagonists of the vitamin D receptor (VDR) signaling pathway - cell viability counter screen (AID 743225); details: VDR-bla HEK293T viability, CellTiter-Glo luminescence, 16 h; viability change, negative = cytotoxic: at 61 µM (top of the series) unless noted; note: nearly all actives have a fitted effect of over 50% in size
In short: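 Cytotoxicity counter screen read by CellTiter-Glo luminescence (30 min, room temperature) in the same wells as the VDR-bla antagonist readout. HEK 293T VDR-UAS-bla cells had 16 h at 37C with compound and 3 nM (final) 1-alpha,25-dihydroxyvitamin D3, then 2 h with FRET substrate.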

[7] = qHTS assay to identify small molecule antagonists of the retinoid-related orphan receptor gamma (ROR-gamma) signaling pathway - cell viability counter screen (AID 1159520); note: nearly all actives have a fitted effect of over 50% in size
In short: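 Tet-on ROR gamma CHO cells were given compounds for 2 hr, then doxycycline hyclate at 1 uM final, and incubated 16 hr at 37 C. Viability was measured as ATP content by CellTiter-Glo luminescence.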

[8] = qHTS assay to identify small molecule agonists of the AP-1 signaling pathway - cell viability counter screen (AID 1159525; calls by dose curve; note: nearly all actives have a fitted effect of over 55% in size)
In short: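 Same-well cytotoxicity counter screen of the Tox21 10K library in ME-180 cells. The readout is ATP-dependent luminescence after 5 h compound treatment. Data are normalised to DMSO and tetra n-octyl ammonium bromide controls.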

[9] = qHTS assay to identify small molecule agonists of the RXR signaling pathway - cell viability counter screen (AID 1159529); note: nearly all actives have a fitted effect of over 50% in size
In short: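 CellTiter-Glo luminescence gave viability in the wells also read for beta-lactamase. Cells (RXR-alpha-UAS-bla HEK 293T, 2% charcoal-stripped FBS medium) had 5 hr plating, then 16 hr compound exposure at 37 C; tetraoctyl ammonium bromide served as positive control.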

[10] = qHTS assay to identify small molecule antagonists of the retinoid acid receptor (RAR) signaling pathway - cell viability counter screen (AID 1159551); note: nearly all actives have a fitted effect of over 35% in size
In short: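 In this counter screen, the RARE-luciferase line C3RL4 was exposed for 6 h at 37 C and 5% CO2 to compounds with retinol at 1 uM final. Cellular ATP, read by luminescence, served as the viability measure.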

[11] = molecular target: Vitamin D3 receptor (Homo sapiens) (UniProt P11473); experiment: qHTS assay to identify small molecule agonists of the vitamin D receptor (VDR) signaling pathway (AID 743222; calls by dose curve; for activation: % is set by controls: 0 for no effect and ±100 for the full control effect); details: HEK293T VDR-UAS-bla, beta-lactamase FRET ratio, 16 h; activation: at 63.5 µM (top of the series) unless noted
Chain of UniProt P11473 (P11473 whole entry, looked up): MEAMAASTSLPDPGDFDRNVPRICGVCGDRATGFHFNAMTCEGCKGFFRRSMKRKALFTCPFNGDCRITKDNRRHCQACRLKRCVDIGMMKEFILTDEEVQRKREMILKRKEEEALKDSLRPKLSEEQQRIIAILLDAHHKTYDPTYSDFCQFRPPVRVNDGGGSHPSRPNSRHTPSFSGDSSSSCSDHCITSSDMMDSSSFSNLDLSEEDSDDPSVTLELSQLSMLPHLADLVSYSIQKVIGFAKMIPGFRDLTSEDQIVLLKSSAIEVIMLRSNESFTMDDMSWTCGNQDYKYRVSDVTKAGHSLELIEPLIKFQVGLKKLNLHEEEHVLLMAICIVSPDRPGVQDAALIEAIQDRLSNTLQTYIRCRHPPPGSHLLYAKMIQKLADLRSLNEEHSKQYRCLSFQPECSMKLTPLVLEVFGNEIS
In short: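 Tox21 cell reporter format: VDR-bla line, 16 h compound exposure in 5% CO2 at 37C, then fluorescence intensity after 2 h with LiveBLAzer B/G FRET substrate.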

[12] = molecular target: Vitamin D3 receptor (Homo sapiens) (UniProt P11473); experiment: qHTS assay to identify small molecule antagonists of the vitamin D receptor (VDR) signaling pathway (AID 743223; active = well fitted inhibition curve with a large enough effect in the signal ratio in the repeat runs, not every such curve was filed as active; inconclusive = weak or mixed curves, or effect the other way; inactive = no such curve, though single readings can be large or run the other way; the % refers to the signal ratio; for activity change, negative = inhibition: % is set by controls: 0 for no effect and ±100 for the full control effect); details: VDR-UAS-bla HEK293T, beta-lactamase FRET ratio, 16 h
In short: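 Antagonist mode: compound added to VDR-bla cells alongside agonist 1alpha,25-dihydroxyvitamin D3 (3 nM final), incubation 16 h at 37C. Read-out is LiveBLAzer FRET fluorescence, 2 h at room temperature.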

[13] = molecular target: Retinoic acid receptor RXR-alpha (Homo sapiens) (UniProt P19793); experiment: qHTS assay to identify small molecule agonists of the RXR signaling pathway (AID 1159527; calls by dose curve; note: nearly all actives have a fitted effect of over 35% in size; for activation: % is set by controls: 0 for no effect and ±100 for the full control effect); details: HEK293T RXRa-UAS-bla, beta-lactamase ratio, 16 h; activation: at 76.8 µM (top of the series) unless noted
Chain of UniProt P19793 (P19793 whole entry, looked up): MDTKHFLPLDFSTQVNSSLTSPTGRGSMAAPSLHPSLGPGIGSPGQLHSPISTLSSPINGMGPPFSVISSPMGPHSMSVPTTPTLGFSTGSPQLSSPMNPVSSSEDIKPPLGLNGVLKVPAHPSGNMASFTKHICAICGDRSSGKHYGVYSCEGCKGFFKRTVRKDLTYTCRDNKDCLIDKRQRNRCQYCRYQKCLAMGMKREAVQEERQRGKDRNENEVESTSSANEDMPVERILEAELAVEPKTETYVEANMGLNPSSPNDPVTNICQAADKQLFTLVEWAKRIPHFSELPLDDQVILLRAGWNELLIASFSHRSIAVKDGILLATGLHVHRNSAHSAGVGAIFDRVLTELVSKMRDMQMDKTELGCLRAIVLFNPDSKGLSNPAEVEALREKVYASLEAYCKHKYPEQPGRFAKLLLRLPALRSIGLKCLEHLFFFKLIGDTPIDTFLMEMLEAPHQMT
In short: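 Agonist-mode beta-lactamase reporter assay: HEK 293T RXR-alpha-UAS-bla cells treated 16 hr at 37 C with compounds, 9-cis retinoic acid as positive control. LiveBLAzer FRET substrate, 405 nm excitation, 460/530 nm emission.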

[14] = molecular target: Bile acid receptor (Homo sapiens) (UniProt Q96RI1); experiment: qHTS assay to identify small molecule antagonists of the farnesoid-X-receptor (FXR) signaling pathway (AID 743217; active = well fitted inhibition curve with a large enough effect in the signal ratio in the repeat runs, not every such curve was filed as active; inconclusive = weak or mixed curves, or effect the other way; inactive = no such curve, though single readings can be large or run the other way; the % refers to the signal ratio); details: HEK293T FXR-UAS-bla, beta-lactamase ratio, CDCA-stimulated, 16 h; activity change, negative = inhibition: at 62.6 µM (top of the series) unless noted
Chain of UniProt Q96RI1 (Q96RI1 whole entry, looked up): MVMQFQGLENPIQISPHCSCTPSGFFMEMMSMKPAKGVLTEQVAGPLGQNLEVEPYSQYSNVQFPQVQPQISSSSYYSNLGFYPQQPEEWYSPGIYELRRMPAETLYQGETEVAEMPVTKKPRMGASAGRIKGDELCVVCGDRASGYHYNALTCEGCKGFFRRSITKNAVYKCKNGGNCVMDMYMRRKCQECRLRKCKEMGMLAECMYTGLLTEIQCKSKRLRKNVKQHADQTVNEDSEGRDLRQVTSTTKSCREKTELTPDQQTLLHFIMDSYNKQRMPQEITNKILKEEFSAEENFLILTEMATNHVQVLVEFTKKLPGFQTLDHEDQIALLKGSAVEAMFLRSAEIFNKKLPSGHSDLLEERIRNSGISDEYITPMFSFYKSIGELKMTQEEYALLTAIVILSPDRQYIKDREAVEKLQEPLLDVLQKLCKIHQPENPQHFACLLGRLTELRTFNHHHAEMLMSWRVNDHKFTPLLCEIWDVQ
In short: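 Test compounds are pin-transferred onto FXR-bla HEK 293T cells, then chenodeoxycholic acid is added at 50 uM final. After 16 h at 37 °C, LiveBLAzer B/G substrate is applied for 2 h at room temperature and fluorescence read.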

[15] = molecular target: Bile acid receptor (Homo sapiens) (UniProt Q96RI1); experiment: qHTS assay to identify small molecule agonists of the farnesoid-X-receptor (FXR) signaling pathway (AID 743220; active = well fitted activation curve with a large enough effect in the signal ratio in the repeat runs, not every such curve was filed as active; inconclusive = weak or mixed curves, or effect the other way; the % refers to the signal ratio); details: HEK293T FXR-UAS-bla, beta-lactamase FRET ratio, 16 h; activation: at 62.6 µM (top of the series) unless noted
In short: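 FXR-UAS-bla HEK 293T cells carrying a UAS-driven beta-lactamase reporter were plated for 5 h at 37C/5% CO2, then exposed to DMSO-dissolved Tox21 10K compounds for 16 h at 37C. A LiveBLAzer B/G FRET substrate was loaded for 2 h at room temperature before fluorescence reading.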

[16] = qHTS assay to identify small molecule agonists of the AP-1 signaling pathway (AID 1159526; calls by dose curve); details: ME-180 (cervical carcinoma) AP-1-bla reporter, beta-lactamase FRET ratio, 5 h; activation: at 76.8 µM (top of the series) unless noted
[17] = molecular target: Nuclear receptor ROR-gamma (Homo sapiens) (UniProt P51449); experiment: qHTS assay to identify small molecule antagonists of the retinoid-related orphan receptor gamma (ROR-gamma) signaling pathway (AID 1159521; note: nearly all actives have a fitted effect of over 50% in size)
In short: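 Antagonist read-out: drop in luminescence (ONE-Glo) from an RORE-LUC reporter in CHO cells with doxycycline-inducible ROR-gamma; 2 hr compound pretreatment, 1 uM doxycycline, 16 hr incubation at 37 C.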

[18] = qHTS assay to identify small molecule agonists of the vitamin D receptor (VDR) signaling pathway - cell viability counter screen (AID 743224); details: VDR-bla HEK293T viability, CellTiter-Glo luminescence, 16 h; activity change, negative = cytotoxicity: at 62.6 µM (top of the series); note: nearly all actives have a fitted effect of over 50% in size
In short: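 CellTiter-Glo viability readout on VDR-bla cells, measured after 16 h of compound treatment at 37C in the same wells.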

[19] = activity change, negative = inhibition: at 61 µM (top of the series) unless noted
Potency is the fitted concentration of half-maximal effect; tags give direction and shape of the fitted curve or compound fluorescence and quenching.

CC[C@@H]([C@H](C)O)n1ncn(-c2ccc(N3CCN(c4ccc(OC[C@@H]5CO[C@@](Cn6cncn6)(c6ccc(F)cc6F)C5)cc4)CC3)cc2)c1=O
inconclusive: Potency [1] 33.5 µM [single point] | Potency [3] 33.5 µM | Potency [7] 11.9 µM [cytotoxic, partial curve] | Potency [8] 16.9 µM [cytotoxic, partial curve] | Potency [10] 33.5 µM [cytotoxic, single point]
active: Potency [2] 23.7 µM | Potency [4] 29.8 µM | Potency [5] 29.8 µM | Potency [6] 23.9 µM | Potency [9] 4.77 µM

CC(C)CC(=O)OCc1ccccc1
inconclusive: activation [11] 1.82% | Potency [8] 12.3 µM [cytotoxic, single point]
inactive: Potency [2] | Potency [7]

Cc1ccc(S(=O)(=O)O)cc1C
inactive: activity change, negative = inhibition ([12]; at 61 µM (top of the series)) 4.11% | Potency [7] | Potency [8]
inconclusive: Potency [3] 6.87 µM [rising, full curve, poor fit] | activity change, negative = inhibition [12, 19] 8.26%
inactive and 9.77 µM (active): Potency [13]

Cc1cc(C(C#N)c2ccc(Cl)cc2)c(Cl)cc1NC(=O)c1cc(I)cc(I)c1O (stereo not drawn)
inconclusive: Potency [2] 5.31 µM [cytotoxic, full curve] | Potency [14] 33.5 µM [single point] | Potency [4] 33.5 µM [cytotoxic] | Potency [15] 15 µM [activator, partial curve, poor fit] | Potency [11] 33.5 µM [fluorescent, single point] | activity change, negative = inhibition [12, 19] 29.3% | Potency [7] 29.8 µM [cytotoxic, single point] | activation [16] -16.6% [at 35.3 µM] | Potency [13] 9.52 µM [inhibitor] | Potency [9] 26.8 µM [cytotoxic, single point]

C#CC(C)(O)CC(C)C (stereo not drawn)
inactive: Potency [12, 19] | Potency [7] | Potency [8] | Potency [9]
inconclusive: Potency [2] 0.0692 µM [cytotoxic, full curve, poor fit] | activation [13] 15.6%

COC(=O)C(c1ccccc1Cl)N1CCc2sccc2C1 (stereo not drawn)
inactive: Potency [2] | Potency [7] | Potency [17]

COC(=O)c1ccc(C(=O)OC)cc1
active: Potency [9] 15.7 µM
inconclusive: Potency [2] 0.198 µM [cytotoxic, single point] | Potency [4] 2.49 µM [rising, full curve, poor fit] | Potency [7] 13.9 µM [cytotoxic, partial curve, poor fit] | Potency [16] 7.87 µM [falling, full curve] | Potency [13] 3.13 µM [inhibitor, full curve] | Potency [10] 17.5 µM [rising, full curve]

COc1ccc(C(=O)c2ccccc2O)c(O)c1
inconclusive: Potency [2] 6.68 µM [cytotoxic, single point] | ratio activity, negative = inhibition [3] -40.6% | Potency [11] 43.5 µM [rising, partial curve, poor fit] | activation [11] -20.5% | activity change, negative = inhibition [12, 19] -53.2% and 0.783% | Potency [18] 43.5 µM [cytotoxic, partial curve, poor fit] | Potency [6] 54.8 µM [cytotoxic, single point] | Potency [7] 34.3 µM [cytotoxic, partial curve] | Potency [8] 38.8 µM [cytotoxic, partial curve, poor fit]

COc1ccc(C)cc1[N+](=O)[O-]
inactive: Potency [11] | Potency [7]
inconclusive: Potency [12, 19] 0.0884 µM [activator, partial curve, poor fit] | Potency [17] 27.7 µM [inhibitor, partial curve, poor fit]

Cc1c(-c2ccc(O)cc2)n(Cc2ccc(OCCN3CCCCCC3)cc2)c2ccc(O)cc12
inconclusive: Potency [18] 33.5 µM [cytotoxic, single point] | Potency [6] 26.8 µM [cytotoxic, single point] | Potency [7] 33.5 µM [cytotoxic, single point] | Potency [8] 30.1 µM [cytotoxic, single point] | Potency [10] 33.5 µM [cytotoxic, single point]
active: Potency [2] 26.6 µM | Potency [4] 29.8 µM | Potency [5] 29.8 µM | Potency [9] 26.8 µM
